# Laboratory results as given in publication PMC10716077.
# Changes are numbered by the printed parent chain. Names may count otherwise. No constants are given. Whether binding was seen depends on the method and setting. In cells and extracts the contact can be indirect. Some entries that bind do so weakly or less than the wild type. Sequences can lack the tags named with a protein.
# T1: GST–Ino2 (comprising TAD1 + TAD2, aa 1–135) (S. cerevisiae) (UniProt P26798)
# T1 sequence: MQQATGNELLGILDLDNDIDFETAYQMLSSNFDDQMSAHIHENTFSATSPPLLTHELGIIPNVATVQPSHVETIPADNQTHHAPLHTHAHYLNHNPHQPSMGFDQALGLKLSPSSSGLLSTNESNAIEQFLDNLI
# T2: GST–Ino2 TAD1 (aa 1–35) (S. cerevisiae) (UniProt P26798)
# T2 sequence: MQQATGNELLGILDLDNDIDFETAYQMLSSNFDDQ
# T3: GST–Ino2 TAD2 (aa 101–135) (S. cerevisiae) (UniProt P26798)
# T3 sequence: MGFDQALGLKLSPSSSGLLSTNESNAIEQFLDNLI
# B1: HA-Toa2 synthesized in E. coli (HA3-TOA2) (protein, UniProt P32774 1-122)
# chain: MAVPGYYELYRRSTIGNSLVDALDTLISDGRIEASLAMRVLETFDKVVAETLKDNTQSKLTVKGNLDTYGFCDDVWTFIVKNCQVTVEDSHRDASQNGSGDSQSVISVDKLRIVACNSKKSE
# B2: HA3-Toa1 aa 1–143 (domain or fragment, UniProt P32773 1-143)
# chain: MSNAEASRVYEIIVESVVNEVREDFENAGIDEQTLQDLKNIWQKKLTETKVTTFSWDNQFNEGNINGVQNDLNFNLATPGVNSSEFNIKEENTGNEGLILPNINSNNNIPHSGETNINTNTVEATNNSGATLNTNTSGNTNAD
# B3: HA-Toa1 aa 226–286 (domain or fragment, UniProt P32773 226-286)
# chain: DDDYLISEGEEDGPDENLMLCLYDKVTRTKARWKCSLKDGVVTINRNDYTFQKAQVEAEWV
# B4: HA-Toa1 aa 215–286 (domain or fragment, UniProt P32773 215-286)
# chain: TDEVGSELDDSDDDYLISEGEEDGPDENLMLCLYDKVTRTKARWKCSLKDGVVTINRNDYTFQKAQVEAEWV
# B5: HA-Toa1 aa 220–286 (domain or fragment, UniProt P32773 220-286)
# chain: SELDDSDDDYLISEGEEDGPDENLMLCLYDKVTRTKARWKCSLKDGVVTINRNDYTFQKAQVEAEWV
# B6: Toa1 ABD1 (aa 1–143) V21A R22A (domain or fragment, UniProt P32773 1-143)
# chain: B2 chain with V21A, R22A
# B7: Toa1 ABD1 (aa 1–143) L38A K39A (domain or fragment, UniProt P32773 1-143)
# chain: B2 chain with L38A, K39A
# B8: Toa1 ABD2 (aa 210–286) K250A V251A (domain or fragment, UniProt P32773 210-286)
# chain: SALLDTDEVGSELDDSDDDYLISEGEEDGPDENLMLCLYDAATRTKARWKCSLKDGVVTINRNDYTFQKAQVEAEWV
# B9: Toa1 ABD2 (aa 210–286) R253A K255A R257A K259A (domain or fragment, UniProt P32773 210-286)
# chain: B8 chain with A41K, A42V, R44A, K46A, R48A, K50A
# B10: Toa1 ABD2 (aa 210–286) I269A R271A (domain or fragment, UniProt P32773 210-286)
# chain: B8 chain with A41K, A42V, I60A, R62A
# B11: Toa1 ABD2 (aa 210–286) F276A K278A (domain or fragment, UniProt P32773 210-286)
# chain: B8 chain with A41K, A42V, F67A, K69A
# B12: Bdf1 aa 1–131 L52A K53A K54A (domain or fragment, UniProt P35817 1-131)
# chain: MTDITPVQNDVDVNGNNVNDDVSSNLKRPIDQGDPSNGLAEEENPANNQLHAAAARLDGDALTSSPAGLAENGIEGATLAANGENGYNATGSGAEDEQQGLKKEEGGQGTKQEDLDENSKQELPMEVPKEP
# B13: Bdf1 aa 1–131 N17A V18A N19A (domain or fragment, UniProt P35817 1-131)
# chain: B12 chain with N17A, V18A, N19A, A52L, A53K, A54K
# B14: Bdf1 aa 1–131 L26A K27A (domain or fragment, UniProt P35817 1-131)
# chain: B12 chain with L26A, K27A, A52L, A53K, A54K
# B15: Bdf1 aa 1–131 E84A N85A (domain or fragment, UniProt P35817 1-131)
# chain: B12 chain with A52L, A53K, A54K, E84A, N85A
# B16: Bdf1 aa 1–131 L101A K102A K103A (domain or fragment, UniProt P35817 1-131)
# chain: B12 chain with A52L, A53K, A54K, L101A, K102A, K103A
# B17: HA-Bdf1 (aa 1–686, full-length), synthesized in E. coli (protein, UniProt P35817 1-686)
# chain: MTDITPVQNDVDVNGNNVNDDVSSNLKRPIDQGDPSNGLAEEENPANNQLHLKKARLDGDALTSSPAGLAENGIEGATLAANGENGYNATGSGAEDEQQGLKKEEGGQGTKQEDLDENSKQELPMEVPKEPAPAPPPEPDMNNLPQNPIPKHQQKHALLAIKAVKRLKDARPFLQPVDPVKLDIPFYFNYIKRPMDLSTIERKLNVGAYEVPEQITEDFNLMVNNSIKFNGPNAGISQMARNIQASFEKHMLNMPAKDAPPVIAKGRRSSAQEDAPIVIRRAQTHNGRPKRTIHPPKSKDIYPYESKKPKSKRLQQAMKFCQSVLKELMAKKHASYNYPFLEPVDPVSMNLPTYFDYVKEPMDLGTIAKKLNDWQYQTMEDFERDVRLVFKNCYTFNPDGTIVNMMGHRLEEVFNSKWADRPNLDDYDSDEDSRTQGDYDDYESEYSESDIDETIITNPAIQYLEEQLARMKVELQQLKKQELEKIRKERRLARGSKKRGKRSKGRSGSKNASSKGRRDKKNKLKTVVTYDMKRIITERINDLPTSKLERAIDIIKKSMPNISEDDEVELDLDTLDNHTILTLYNTFFRQYESSSGASNGLDGTSGVTRDASSLSPTSAGSRKRRSKALSQEEQSRQIEKIKNKLAILDSASPLSQNGSPGQIQSAAHNGFSSSSDDDVSSESEEE
# B18: HA-Bdf1 aa 1–272 (domain or fragment, UniProt P35817 1-272)
# chain: MTDITPVQNDVDVNGNNVNDDVSSNLKRPIDQGDPSNGLAEEENPANNQLHLKKARLDGDALTSSPAGLAENGIEGATLAANGENGYNATGSGAEDEQQGLKKEEGGQGTKQEDLDENSKQELPMEVPKEPAPAPPPEPDMNNLPQNPIPKHQQKHALLAIKAVKRLKDARPFLQPVDPVKLDIPFYFNYIKRPMDLSTIERKLNVGAYEVPEQITEDFNLMVNNSIKFNGPNAGISQMARNIQASFEKHMLNMPAKDAPPVIAKGRRSSAQ
# B19: HA-Bdf1 aa 273–436 (domain or fragment, UniProt P35817 273-436)
# chain: EDAPIVIRRAQTHNGRPKRTIHPPKSKDIYPYESKKPKSKRLQQAMKFCQSVLKELMAKKHASYNYPFLEPVDPVSMNLPTYFDYVKEPMDLGTIAKKLNDWQYQTMEDFERDVRLVFKNCYTFNPDGTIVNMMGHRLEEVFNSKWADRPNLDDYDSDEDSRTQ
# B20: HA-Bdf1 aa 1–131 (domain or fragment, UniProt P35817 1-131)
# chain: B12 chain with A52L, A53K, A54K
# B21: HA-Bdf1 aa 437–686 (domain or fragment, UniProt P35817 437-686)
# chain: GDYDDYESEYSESDIDETIITNPAIQYLEEQLARMKVELQQLKKQELEKIRKERRLARGSKKRGKRSKGRSGSKNASSKGRRDKKNKLKTVVTYDMKRIITERINDLPTSKLERAIDIIKKSMPNISEDDEVELDLDTLDNHTILTLYNTFFRQYESSSGASNGLDGTSGVTRDASSLSPTSAGSRKRRSKALSQEEQSRQIEKIKNKLAILDSASPLSQNGSPGQIQSAAHNGFSSSSDDDVSSESEEE
# B22: HA-Bdf1 aa 132–272 (domain or fragment, UniProt P35817 132-272)
# chain: APAPPPEPDMNNLPQNPIPKHQQKHALLAIKAVKRLKDARPFLQPVDPVKLDIPFYFNYIKRPMDLSTIERKLNVGAYEVPEQITEDFNLMVNNSIKFNGPNAGISQMARNIQASFEKHMLNMPAKDAPPVIAKGRRSSAQ
# B23: HA-Bdf1 aa 273–349 (domain or fragment, UniProt P35817 273-349)
# chain: EDAPIVIRRAQTHNGRPKRTIHPPKSKDIYPYESKKPKSKRLQQAMKFCQSVLKELMAKKHASYNYPFLEPVDPVSM
# B24: HA-Bdf1 aa 350–436 (domain or fragment, UniProt P35817 350-436)
# chain: NLPTYFDYVKEPMDLGTIAKKLNDWQYQTMEDFERDVRLVFKNCYTFNPDGTIVNMMGHRLEEVFNSKWADRPNLDDYDSDEDSRTQ
# Biological target: T1, GST–Ino2 (comprising TAD1 + TAD2, aa 1–135) (S. cerevisiae)
# Experiment: pull-down; GST fusions (from E. coli) immobilized on GSH sepharose, incubated with total protein extract from E. coli containing the HA fusion; washed twice with buffer A1, eluted with free GSH; anti-HA blot; only the target purified
row,Binder,binding
1,B1,binds weakly
2,B2,binds
3,B3,binds
4,B4,binds
5,B5,binds

# Biological target: T2, GST–Ino2 TAD1 (aa 1–35) (S. cerevisiae)
# Experiment: as above
row,Binder,binding
1,B2,binds
2,B6,binds
3,B7,binds
4,B8,binds
5,B9,binds
6,B10,binds
7,B11,binds

# Biological target: T3, GST–Ino2 TAD2 (aa 101–135) (S. cerevisiae)
# Experiment: as above
row,Binder,binding
1,B12,binds
2,B13,binds
3,B14,binds
4,B15,binds
5,B16,binds
6,B17,binds
7,B2,no binding
8,B8,binds
9,B9,binds
10,B10,binds
11,B11,binds
12,B18,binds
13,B19,binds
14,B20,binds
15,B21,no binding
16,B22,no binding
17,B23,no binding
18,B24,no binding
